No constants are given. Whether binding was seen depends on the method and setting. In cells and extracts the contact can be indirect. Some binding calls cover weakened binding; strength is not graded here. For some assays here: Where a sequence is shown, tags or fusion partners need not be part of it.
Columns and labels:
[1] = target: T1, Glorund (Glo), endogenous (Drosophila (endogenous in late-ovaries)) (UniProt Q9VGH5); assay: co-IP; anti-Glo antibody (5B7) crosslinked to Dynabeads Protein G; wild-type late-ovary lysate; IP buffer with 200 mM NaCl
T1 sequence: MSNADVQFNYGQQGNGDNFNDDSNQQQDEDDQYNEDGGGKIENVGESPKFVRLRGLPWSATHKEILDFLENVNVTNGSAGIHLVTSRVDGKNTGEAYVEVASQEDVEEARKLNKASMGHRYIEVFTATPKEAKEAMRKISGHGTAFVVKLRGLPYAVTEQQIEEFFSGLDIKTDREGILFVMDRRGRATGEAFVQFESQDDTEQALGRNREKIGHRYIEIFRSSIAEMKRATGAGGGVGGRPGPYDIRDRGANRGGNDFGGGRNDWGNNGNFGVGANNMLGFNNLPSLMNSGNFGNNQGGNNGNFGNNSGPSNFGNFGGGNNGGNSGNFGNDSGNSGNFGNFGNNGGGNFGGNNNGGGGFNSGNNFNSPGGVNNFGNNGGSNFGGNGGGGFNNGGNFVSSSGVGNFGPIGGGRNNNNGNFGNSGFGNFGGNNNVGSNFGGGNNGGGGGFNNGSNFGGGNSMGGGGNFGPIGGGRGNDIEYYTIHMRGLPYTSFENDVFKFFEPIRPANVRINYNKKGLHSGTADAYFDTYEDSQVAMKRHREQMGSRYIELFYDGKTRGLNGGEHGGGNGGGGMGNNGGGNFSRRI

Sequences of proteins named here, by UniProt entry; tags and fusion partners are left off.
UniProt Q9NFU0: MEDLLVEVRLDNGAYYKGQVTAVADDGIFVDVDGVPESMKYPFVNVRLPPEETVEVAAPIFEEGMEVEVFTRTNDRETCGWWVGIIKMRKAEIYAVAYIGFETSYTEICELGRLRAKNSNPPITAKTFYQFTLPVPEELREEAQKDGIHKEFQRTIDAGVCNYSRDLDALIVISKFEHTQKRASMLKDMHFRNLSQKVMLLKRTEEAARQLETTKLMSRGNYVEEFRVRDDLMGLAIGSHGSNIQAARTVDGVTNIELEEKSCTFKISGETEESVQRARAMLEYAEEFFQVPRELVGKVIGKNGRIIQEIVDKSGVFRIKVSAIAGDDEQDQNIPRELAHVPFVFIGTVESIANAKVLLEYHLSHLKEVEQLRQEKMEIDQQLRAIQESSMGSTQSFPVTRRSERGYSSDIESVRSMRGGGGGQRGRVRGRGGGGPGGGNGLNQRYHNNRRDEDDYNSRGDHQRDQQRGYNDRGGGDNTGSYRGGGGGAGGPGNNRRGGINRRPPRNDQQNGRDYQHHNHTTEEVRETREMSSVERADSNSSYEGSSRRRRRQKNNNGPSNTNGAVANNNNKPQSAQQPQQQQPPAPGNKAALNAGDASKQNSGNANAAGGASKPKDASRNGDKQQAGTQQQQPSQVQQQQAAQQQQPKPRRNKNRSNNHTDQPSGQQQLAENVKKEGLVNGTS

[2] = target: T2, GFP-GloΔCTX1 + 2 (Drosophila) (UniProt Q9VGH5); assay: co-IP; anti-GFP immunoprecipitation from late-ovary extract in the presence of RNase; immunoblot with anti-dFMRP, anti-Glo or anti-GFP
T2 sequence: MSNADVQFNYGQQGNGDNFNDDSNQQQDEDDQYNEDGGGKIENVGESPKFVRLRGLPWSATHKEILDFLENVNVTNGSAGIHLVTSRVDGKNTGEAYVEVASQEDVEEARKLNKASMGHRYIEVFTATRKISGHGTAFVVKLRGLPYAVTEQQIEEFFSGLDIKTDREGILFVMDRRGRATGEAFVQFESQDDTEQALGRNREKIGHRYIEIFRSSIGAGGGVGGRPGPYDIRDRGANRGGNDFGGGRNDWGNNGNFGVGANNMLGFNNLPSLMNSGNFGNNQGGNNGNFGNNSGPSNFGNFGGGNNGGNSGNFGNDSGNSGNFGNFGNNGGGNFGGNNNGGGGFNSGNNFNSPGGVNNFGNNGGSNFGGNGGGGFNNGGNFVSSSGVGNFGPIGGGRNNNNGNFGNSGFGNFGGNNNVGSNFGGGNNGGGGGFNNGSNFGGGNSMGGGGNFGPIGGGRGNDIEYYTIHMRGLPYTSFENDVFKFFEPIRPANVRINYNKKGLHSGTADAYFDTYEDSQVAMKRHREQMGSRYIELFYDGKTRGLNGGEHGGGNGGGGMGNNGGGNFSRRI

[3] = target: T3, GFP-GloΔqRRM1 (Drosophila) (UniProt Q9VGH5); assay: as above
T3 sequence: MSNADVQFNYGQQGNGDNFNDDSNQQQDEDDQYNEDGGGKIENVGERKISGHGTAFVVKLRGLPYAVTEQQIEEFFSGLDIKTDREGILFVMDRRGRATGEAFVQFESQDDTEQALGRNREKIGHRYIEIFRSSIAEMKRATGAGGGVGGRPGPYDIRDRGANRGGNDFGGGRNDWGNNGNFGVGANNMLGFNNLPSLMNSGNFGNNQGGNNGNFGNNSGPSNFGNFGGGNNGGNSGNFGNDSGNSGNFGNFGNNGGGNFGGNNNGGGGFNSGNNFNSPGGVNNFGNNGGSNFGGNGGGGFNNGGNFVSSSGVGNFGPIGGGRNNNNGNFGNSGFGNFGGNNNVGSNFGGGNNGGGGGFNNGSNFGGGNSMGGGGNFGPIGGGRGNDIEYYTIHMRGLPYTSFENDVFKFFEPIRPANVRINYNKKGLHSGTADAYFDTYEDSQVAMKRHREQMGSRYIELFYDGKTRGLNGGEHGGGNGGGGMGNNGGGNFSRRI

[4] = target: T4, GFP-GloΔqRRM2 (Drosophila) (UniProt Q9VGH5); assay: as above
T4 sequence: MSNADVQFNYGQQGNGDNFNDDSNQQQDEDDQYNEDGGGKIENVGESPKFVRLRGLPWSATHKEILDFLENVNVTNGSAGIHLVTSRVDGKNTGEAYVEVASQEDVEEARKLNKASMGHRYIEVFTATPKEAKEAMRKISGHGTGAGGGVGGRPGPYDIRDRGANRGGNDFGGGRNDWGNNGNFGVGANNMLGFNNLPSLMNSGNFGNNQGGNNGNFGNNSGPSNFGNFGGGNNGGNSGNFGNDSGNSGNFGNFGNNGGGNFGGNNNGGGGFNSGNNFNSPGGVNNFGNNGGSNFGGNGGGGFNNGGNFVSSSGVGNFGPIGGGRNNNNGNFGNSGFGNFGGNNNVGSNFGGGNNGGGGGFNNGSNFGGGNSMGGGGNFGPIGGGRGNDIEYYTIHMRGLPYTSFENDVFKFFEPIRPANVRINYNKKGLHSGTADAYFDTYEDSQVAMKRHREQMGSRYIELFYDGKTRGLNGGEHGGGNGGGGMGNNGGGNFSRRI

[5] = target: T5, GFP-GloΔqRRM3 (Drosophila) (UniProt Q9VGH5); assay: as above
T5 sequence: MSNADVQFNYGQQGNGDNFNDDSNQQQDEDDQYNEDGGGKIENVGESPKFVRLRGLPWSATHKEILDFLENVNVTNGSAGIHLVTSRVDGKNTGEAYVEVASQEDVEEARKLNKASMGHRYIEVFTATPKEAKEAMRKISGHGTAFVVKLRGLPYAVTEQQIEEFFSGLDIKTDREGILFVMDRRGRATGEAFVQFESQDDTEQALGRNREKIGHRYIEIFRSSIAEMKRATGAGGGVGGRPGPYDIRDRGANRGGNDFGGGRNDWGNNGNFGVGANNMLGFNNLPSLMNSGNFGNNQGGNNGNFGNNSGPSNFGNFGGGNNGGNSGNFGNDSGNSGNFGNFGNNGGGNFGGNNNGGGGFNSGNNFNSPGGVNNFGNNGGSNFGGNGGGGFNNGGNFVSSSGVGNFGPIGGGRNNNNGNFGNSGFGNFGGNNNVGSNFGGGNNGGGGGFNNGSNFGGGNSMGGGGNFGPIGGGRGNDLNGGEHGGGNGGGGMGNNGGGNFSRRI

“Drosophila fragile X mental retardation protein (dFMRP), endogenous (from UniProt Q9NFU0 1-684)” was tested, and the binding [1] was “binds”, the binding [2] was “binds” and the binding [3] was “binds”. For the same substance, the binding [4] was “no binding” and the binding [5] was “binds”.

From PMC9262583
